# Measurements as given in PubChem BioAssay AID1347120 (National Center for Advancing Translational Sciences (NCATS), 2019).
# Screen size: about 390,000 compounds; about 930 (0.24%) were called active. Inconclusive results, whose numbers are uncertain, are shown with a selection of clear calls. Calls come from the whole dose curve; as a rule, active = well fitted activation curve with a large enough effect; inconclusive = small, poorly fitted or top-dose-only effect; inactive = no such curve, though single readings can be large or run the other way. Where the call is inconclusive, the potency comes from a doubtful curve fit.
# Experiment: qHTS for Suppressors of FUS Proteinopathy: Primary screen using FUS-linked yeast assay; note: nearly all actives have a fitted effect of over 55% in size;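 for growth rescue (activation): plate controls were DMSO vehicle for no effect and reference control for full effect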
# Details: S. cerevisiae FUS-expressing, OD600, 24 h; Potency: growth rescue; growth rescue (activation): at 76.6 µM (top of the series)
# Outline: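 Restored growth of FUS-toxic S. cerevisiae, read as 600 nm absorbance after 24 h at 30C in galactose medium (starting OD 0.005). Controls CP55940 and DMSO.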
# Potency is the fitted concentration of half-maximal effect; tags give direction and shape of the fitted curve.
Structure (SMILES),Potency,growth rescue (activation)
CCOc1cccc(=O)c2c(C)n(C)c(C)c12,"inconclusive: 17.8 µM [activator, partial curve, poor fit]",–
Cc1cc(C(=O)CSc2n[nH]c(N)n2)c(C)n1-c1cc(F)ccc1F,"inconclusive: 31.6 µM [activator, partial curve, poor fit]",–
COc1ccc(C2(C(=O)c3ccccc3)C(=O)c3ccccc3C2=O)cc1,inactive,–
COc1cccc(N2CCN(C(=O)c3cc4c(=O)n(Cc5ccccc5)ccc4nc3C)CC2)c1,"inconclusive: 10 µM [activator, partial curve, poor fit]",–
CC(C)S(=O)(=O)c1oc(-c2ccc(F)cc2)nc1S(=O)(=O)c1ccccc1,inactive,–
CC(=O)C1=C(O)C2(C)c3c(O)c(C)c(O)c(C(C)=O)c3OC2CC1=O (stereo unspecified),inactive,–
Cc1ccc(C(=O)CC(C(=O)O)c2cn(CCC#N)c3ccccc23)cc1 (stereo unspecified),"inconclusive: 11.2 µM [activator, partial curve]",–
Cc1ccc2c(c1)C1CS(=O)(=O)N(Cc3ccc(F)cc3)CN1C2 (stereo unspecified),"inconclusive: 5.62 µM [activator, full curve]",–
CN(C)S(=O)(=O)N1CCC(Oc2ccc(C(=O)N3C[C@@H]4CCC[C@H]3C4)cc2)CC1,"inconclusive: 50.1 µM [activator, single point]",–
Cc1ccc(CCNC(=O)c2nnc(CS(=O)(=O)c3ccccc3)o2)cc1,"inconclusive: 50.1 µM [activator, single point]",–
CCOC(=O)c1ccc(NC(=O)c2cccc3c2C(=O)N(CC2CCCO2)C3)cc1 (stereo unspecified),"inconclusive: 31.6 µM [activator, single point]",–
Cc1ccccc1Nc1c(-c2cccc(N(C)C)c2)nc2ccc(Br)cn12,inactive,–
CC1(c2ccccc2)NC(=O)N(CC(=O)Nc2nc(-c3ccccn3)cs2)C1=O (stereo unspecified),"inconclusive: 35.5 µM [activator, partial curve, poor fit]",–
Cc1cccc(Nc2nnc(SC/C(O)=C(\C#N)c3nc4ccccc4[nH]3)s2)c1,"inconclusive: 14.1 µM [activator, partial curve]",–
O=C(NC1CCCCC1)N1CCSC1=Nc1ccccc1,"inconclusive: 50.1 µM [activator, single point]",–
COC(=O)c1cc(NC(=O)c2cc(-c3ccccc3Cl)oc2C(F)(F)F)ccc1N1CCOCC1,"inconclusive: 50.1 µM [activator, single point]",–
CCc1ccc(N/C(N)=N/c2nc(CSc3ccccn3)cc(=O)[nH]2)cc1,inactive,–
Cc1ccc(CN/C=C/C(=O)c2ccc(Br)cc2)cc1,"inconclusive: 2.24 µM [activator, full curve, poor fit]",–
NS(=O)(=O)c1ccc(CCNc2cc(=O)n(Cc3ccc(F)cc3)c(=O)[nH]2)cc1,"inconclusive: 15.8 µM [activator, partial curve]",–
O=C(c1cc(Sc2ccc(Cl)cc2)nc2ccccc12)N1CCN(c2ccccn2)CC1,"inconclusive: 39.8 µM [activator, single point]",–
O=C1C=C(c2ccc3ncccc3c2)C[C@@H](c2ccc(Cl)cc2)C1,"inconclusive: 44.7 µM [activator, single point]",–

Structure (SMILES),Potency,growth rescue (activation)
COC(=O)c1cc(C#N)c(Oc2ccccc2OC)nc1C,"inconclusive: 7.94 µM [activator, single point]",–
COc1cc(C(c2c(C)[nH][nH]c2=O)c2c(C)[nH][nH]c2=O)ccc1OS(=O)(=O)c1ccc(C)cc1,"inconclusive: 31.6 µM [activator, partial curve, poor fit]",–
CC(C)(C)c1cc(C(=O)N/N=C/c2ccc(-c3ccccc3[N+](=O)[O-])o2)n[nH]1,"inconclusive: 17.8 µM [activator, single point]",–
COc1cc(OC)cc(C2=Cc3ccccc3C(CC(=O)c3ccco3)N2c2ccc(-c3ccc(C(N)=O)cc3)cc2)c1 (stereo unspecified),"inconclusive: 22.4 µM [activator, partial curve, poor fit]",–
Brc1ccc(-c2nnc(-c3cccnc3)o2)cc1,inactive,–
CCN1C(=O)C(Cc2nc3ccccc3c(=O)n2-c2ccc(OC)cc2)c2cc(C)ccc21 (stereo unspecified),"inconclusive: 3.55 µM [activator, full curve]",–
Cc1cc(C(=O)CN2C(=O)NC3(CCCC3)C2=O)c(C)n1-c1ccc2c(c1)OCO2,"inconclusive: 39.8 µM [activator, single point]",–
CCN(C(=O)c1nn(C)c2c1CSc1ccccc1-2)c1cccc(C)c1,"inconclusive: 50.1 µM [activator, single point]",–
O=C(OC12CCCN(C1)/C(=C/c1ccc(Cl)cc1)C2)C1CCCC1 (stereo unspecified),inactive,–
CN1CCN(C(=O)/C=C/c2ccc([N+](=O)[O-])o2)CC1,inactive,–
O=[N+]([O-])c1ccc(CN2CCN(c3ccccc3Cl)CC2)o1,inactive,–
Cc1ccc2sc(N(CCCN(C)C)C(=O)c3ccc(S(=O)(=O)N4CCc5ccccc5C4)cc3)nc2c1C,"inconclusive: 50.1 µM [activator, single point]",–
COc1ccc(/C(O)=C2/C(=O)C(=O)N(c3nc(C)c(C)s3)C2c2ccco2)cc1 (stereo unspecified),"inconclusive: 50.1 µM [activator, single point]",–
Cc1ccc(OCCSc2nc3ccccc3n2CC(=O)N2CCOCC2)cc1C,inactive,–
COc1ccc(CN(C)CC(=O)NC(=O)NC2CCCCC2)cc1,"inconclusive: 10 µM [activator, partial curve, poor fit]",–
CCOc1ccc(-c2c(C)nn3c(C)c(C(=O)NC(C)c4ccccc4)cnc23)cc1OCC (stereo unspecified),"inconclusive: 3.55 µM [activator, partial curve, poor fit]",–
CCc1ccc(CNC(=O)c2cc3c(C)nc4ccccc4c3o2)cc1,"inconclusive: 50.1 µM [activator, single point]",–
O=C(Cn1ccn(-c2ccc(F)c(F)c2)c(=O)c1=O)NCc1ccccc1,inactive,–
Cc1cccc(N=C2NN=C(c3c(C)[nH]c4ccccc34)CS2)c1,active: 11.2 µM,–
COc1ccc(C2CC(c3ccccc3)=NN2C(=O)COC(=O)CNC(=O)c2ccccc2)cc1 (stereo unspecified),"inconclusive: 8.91 µM [activator, partial curve, poor fit]",–
CCNC(=S)Nc1ccc2c(c1)c(=O)n(C)n2-c1ccc(C(C)(C)C)cc1,active: 31.6 µM,–

Structure (SMILES),Potency,growth rescue (activation)
CC1=NN(c2ccccc2)C(=O)C1N=Nc1ccc(N)cc1 (stereo unspecified),"inconclusive: 22.4 µM [activator, partial curve]",–
CC1(C)OC(c2ccccc2)=C/C(=C/C=Nc2ccccc2)O1,"inconclusive: 35.5 µM [activator, partial curve]",–
CCOC(=O)c1cnn(-c2cccc(Cl)c2)c1C1CCN(C(=O)OC(C)(C)C)CC1,inactive,–
Cc1c(Br)cccc1NC(=O)C1(C)CCN1Cc1ccc(OC(C)C)cc1 (stereo unspecified),"inconclusive: 31.6 µM [activator, single point]",–
O=C(N1CCOCC1)N1CC[C@H]2[C@H](CCCN2Cc2ccccc2)C1,inactive,–
COC(=O)[C@@]12C[C@@H](CC(=O)NCc3ccccc3)C(=O)N(Cc3ccc4c(c3)OCO4)C1=CCC(C)(C)C2,"inconclusive: 28.2 µM [activator, single point]",–
Cc1nn(CC(=O)c2ccc(Cl)s2)c(C)c1[N+](=O)[O-],active: 17.8 µM,–
N#Cc1cccnc1N1CCN(C(=O)c2cccc3c2C(=O)c2ccc(Cl)cc2S3(=O)=O)CC1,"inconclusive: 35.5 µM [activator, single point]",–
COc1cc(C(=O)Nc2nc3ccc(S(=O)(=O)N4CCOCC4)cc3s2)cc(OC)c1OC,"inconclusive: 35.5 µM [activator, partial curve, poor fit]",–
Cc1ccc(S(=O)(=O)N2CCC(=O)N(CCOCc3cccc(Cl)c3)CC2)cc1,"inconclusive: 17.8 µM [activator, partial curve]",–
COc1cccc(-c2nn(C)c3sc(C(=O)N4CCN(c5cccc(C(F)(F)F)c5)CC4)cc23)c1,"inconclusive: 28.2 µM [activator, single point]",–
O=C(NCCCN1CCOCC1)c1ccc(S(=O)(=O)Nc2ccccc2F)cc1,–,inconclusive: -87.2% [activator]
COc1ccccc1N(CC(=O)NCCSc1ccccc1)S(=O)(=O)c1ccc(C)cc1,inactive,–
Clc1ccc(-c2noc(CSc3nnc(-c4ccncc4)n3-c3ccccc3)n2)cc1,"inconclusive: 35.5 µM [activator, partial curve, poor fit]",–
CN(C(=O)c1cccc(NC(=O)Cc2ccc(NC(=O)C3CCCN(C(=O)C4CCC4)C3)cc2)c1)C1CCCCC1 (stereo unspecified),"inconclusive: 15.8 µM [activator, single point]",–
O=C(Nc1ccccc1Cl)c1cc(C2CCCCN2C(=O)c2ccccc2)on1 (stereo unspecified),"inconclusive: 35.5 µM [activator, partial curve, poor fit]",–
CC(C)C[C@@H](CN1CCC[C@@H]1CN1C(=S)NC[C@@H]1Cc1ccccc1)N1C[C@H](Cc2ccc(O)cc2)N(CC2CCCCCC2)C1=S,"inconclusive: 39.8 µM [activator, single point]",–
CCSc1nnc(-c2cccc(S(=O)(=O)N(CC)CC)c2)n1Cc1ccccc1,"inconclusive: 10 µM [activator, full curve, poor fit]",–
CCCCN(CCCC)S(=O)(=O)c1ccc(NC(=O)c2ccc([N+](=O)[O-])cc2Cl)cc1,"inconclusive: 22.4 µM [activator, partial curve, poor fit]",–
